# Experimental data from PubChem BioAssay AID1508624 (National Center for Advancing Translational Sciences (NCATS), 2021).
# Among all 48,000 compounds or so, about 120 (0.25%) were called active. Roughly 4% stayed inconclusive and do not appear here. The call rests on the fitted dose curve; in most records, active means well fitted activation curve with a large enough effect; inconclusive means small, poorly fitted or top-dose-only effect, or another doubt; inactive means no such curve, though single readings can be large or run the other way. The list shows a part of the results.
# Experiment: Primary qHTS for Identification of Small Molecule Activators of Huntingtin-Antisense Promoter Activity; further: nearly all actives have a fitted effect of over 55% in size
# Conditions: HEK293 HTT-AS promoter firefly luciferase reporter, 24 h; series mostly up to 57.5 µM; activity change, positive = activation: at the top concentration
# In short: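 HEK293 cells carrying firefly luciferase reporters were seeded at 2,500 per well in Opti-MEM and cultured for 24 h. They were then treated with compounds at up to 57.5 uM final for 24 h at 37 degrees C before Dual-Glo luminescence readout.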
row,SMILES,"activity change, positive = activation"
1,Cc1ccc2sc(N(Cc3cccnc3)C(=O)C3COc4ccccc4O3)nc2c1C (configuration not stated),inactive: -3.83%
2,CCc1ccc(CN(C(=O)c2cc(=O)c3ccc(C)cc3o2)C2CCS(=O)(=O)C2)cc1 (configuration not stated),inactive: -14.7%
3,CC(C)Cn1c(=O)c2sccc2n2c(CCCC(=O)NC3CCCCC3)nnc12,inactive: 7.04%
4,CCN(CC)CCNC(=O)c1ccc(-n2c(-c3ccccc3)cc3c2CCCC3)cc1,inactive: 18.1%
5,COc1cccc(CNC(=O)CCCn2nc(C)c3c(C)n(-c4ccc(C)cc4)nc3c2=O)c1OC,inactive: -4.27%
6,Cc1cc(C)cc(NC(=O)C2CCN(S(=O)(=O)c3cccc(-c4noc(C)n4)c3)CC2)c1,inactive: -36.4%
7,COc1ccc(S(=O)(=O)c2nnn(-c3ccc(C)c(Cl)c3)c2C)cc1,inactive: -38.9%
8,CC1=Nc2cc(C(=O)NC(C)C)ccc2Sc2ccc(C)cc21,inactive: -33.3%
9,Fc1ccc(Br)cc1C1C=C(c2ccc(Br)cc2)Nc2nnnn21 (configuration not stated),inactive: -25.2%
10,Cc1ccc(CNC(=O)CCCN2C(=O)COc3ccc(C)cc32)cc1,inactive: 13.6%
11,Cc1cccc(NC(=O)C(=O)NCCc2csc(-c3ccc(C(F)(F)F)cc3)n2)c1C,inactive: -3.94%
12,O=C(CC1N=C2c3ccccc3N=C(SCC(=O)Nc3ccccc3F)N2C1=O)NCc1cccs1 (configuration not stated),inactive: -3.66%
13,CC(C)Cn1cc(NC(=O)NCc2ccccc2Cl)c2ccccc2c1=O,inactive: -5.65%
14,CC(NC(=O)C1CCN(S(=O)(=O)c2ccc3nc4c(c(C(=O)O)c3c2)CCCC4)CC1)c1ccccc1 (configuration not stated),inactive: 2.65%
15,Cc1ccc(NC(=O)CCS(=O)(=O)c2cc(Br)cc3c2N(C(=O)C2CC2)CC3)cc1,inactive: -9.43%
16,O=C(CSc1oc(-c2ccccc2)nc1S(=O)(=O)c1ccccc1)c1ccccc1,inactive: -10.4%
17,COc1cccc(NC(=O)c2ccc3nc(Cc4ccccc4)oc3c2)c1,inactive: -10.9%
18,CCc1ccc(-n2c(SCc3cccc(F)c3)nc3[nH]ncc3c2=O)cc1,"inactive: -10.2% [at 11.5 µM, percent change from vehicle, -100% = no light]"
19,COc1ccc(CNC(=O)Cn2nc(C)c3c(C)n(-c4ccccc4)nc3c2=O)cc1OC,inactive: -14.2%
20,CCCCc1ccc(NC(=O)C2(C)Cc3ccccc3C(=O)O2)cc1 (configuration not stated),inactive: -21.2%
21,CCc1ccc(C2CC(=O)Oc3c2c(=O)n(C)c2ccccc32)cc1 (configuration not stated),inactive: -18.2%
22,Cc1cccc(-c2nc(C(N)=O)c3c(n2)n(-c2ccc4c(c2)OCO4)c(=O)n3C)c1,inactive: -17.1%
23,COc1ccc(N(C)C(=O)c2cc(S(=O)(=O)N3CCc4ccccc43)cn2C)c(OC)c1,inactive: -21.5%

row,SMILES,"activity change, positive = activation"
1,Cc1cc(C)cc(NC(=O)Cn2cc(C(=O)c3ccccc3)c(=O)c3ccc(C)nc32)c1,inactive: -11.7%
2,Cn1c(=O)c2nc(SCC(=O)Nc3ccc(Cl)c(Cl)c3)n(C)c2n(C)c1=O,inactive: -10.2%
3,CCCCC(CC)CN=C(N)NC(N)=NCCCCCCN=C(N)NC(N)=NCC(CC)CCCC (configuration not stated),inactive: -76.7%
4,Cc1ccc(CN(Cc2ccco2)c2cnc(S(C)(=O)=O)nc2C(=O)Nc2ccccc2Br)o1,inactive: -30.8%
5,COC(=O)CN1C(=O)C(O)(CC(=O)c2ccc(F)cc2)c2ccccc21 (configuration not stated),inactive: -4.49%
6,CCOC(=O)CSc1nc2ccc(NC(=O)COc3ccccc3C)cc2s1,inactive: -2.68%
7,Cc1ccc(Cl)cc1NC(=O)CCS(=O)(=O)c1ccc2c(c1)n(C)c(=O)c(=O)n2C,inactive: -3.11%
8,Cc1ccc(-n2c3nc(=O)[nH]c(=O)c-3cc3c(C)nn(-c4ccccc4)c32)c(C)c1,inactive: -10.6%
9,O=C(Nc1ccc(Cl)cc1)c1cc2c(-c3ccccc3)nn(-c3ccccc3)c2s1,inactive: 2.81%
10,Cc1nn(CC(=O)N2CCCCC2)c(=O)c2cc3occc3n12,inactive: -4.85%
11,CCN(CC)CCNC(=O)COc1ccc(Cl)cc1,inactive: -1.02%
12,COc1ccc(N2CCN(C(=O)c3ccc4c(Cl)c5c(nc4c3)CCCC5)CC2)cc1,inactive: -3.16%
13,CCOC(=O)c1c(NC(C)=O)c2c3c(sc2n1Cc1nc(-c2cccc(C)c2)oc1C)CCCC3,inactive: -3.39%
14,CCOc1ccc(-c2cc(C(=O)NCCc3ccc(Cl)cc3)c3ccccc3n2)cc1,inactive: 0%
15,COc1cc(-c2cc(OC)c3c(C)oc(C)c3c(=O)c2)ccc1OC(=O)c1ccccc1F,inactive: -10.2%
16,OCCCc1nc2n(n1)C(c1cccc(Cl)c1)C=C(c1ccccc1)N2 (configuration not stated),inactive: -19.8%
17,COc1ccccc1-c1nc(CNC(=O)Nc2ccccc2)c(C)o1,inactive: -9.91%
18,O=[N+]([O-])c1cc(-c2nc(-c3ccccc3)no2)ccc1NC1CCCC1,inactive: -21.6%
19,COc1ccc(CN2C(=O)N(c3ccc(C)cc3)C(=O)C2CC(=O)Nc2ccccc2)cc1OC (configuration not stated),inactive: 22.5%
20,CCCCCCNC(=O)n1cc(F)c(=O)[nH]c1=O,inactive
21,Cc1ccc2nc(NCCc3ccccc3)c3nncn3c2c1,inactive: 17.7%
22,Cc1nn(-c2ccccc2)c(OC(=O)C(C)(C)C)c1Sc1ccccc1,inactive: -3.73%
23,CCn1c(=O)cc(OCC(=O)Nc2ccc(C)c(F)c2)c2ccccc21,inactive: -6.43%

row,SMILES,"activity change, positive = activation"
1,Cc1ccc(Cn2c(SCc3ccc(C(=O)NC4CCCC4)cc3)nc3ccncc32)cc1,inactive: -26.6%
2,Cc1ccc(-n2c(-c3ccco3)nc3c(cnn3-c3ccccc3C)c2=O)cc1,inactive: -33.9%
3,COC(=O)c1cc(NS(=O)(=O)c2cc(Br)cc3c2N(C(C)=O)CC3)cc(C(=O)OC)c1,inactive: 13.6%
4,COCCn1c(=N)c(C(=O)NCc2ccco2)cc2c(=O)n3cc(C)ccc3nc21,inactive: -3.53%
5,Cc1nnc(NC(=O)C(=O)c2cc(C)n(-c3ccc(C)c(C)c3)c2C)s1,inactive: -15.5%
6,CCCC(=O)c1ccc(OC(=O)c2c(-c3ccccc3Cl)noc2C)cc1,inactive: -21.4%
7,Cc1cccc(-n2c(=O)c3c(c4cc(C)ccc4n3C)n(CC(=O)Nc3ccc(C)cc3C)c2=O)c1,inactive: -8.6%
8,Cc1ccc(C(=O)Nc2ccc3oc(-c4ccncc4)nc3c2)c(Cl)c1,"inactive: 5.65% [at 11.5 µM, percent change from vehicle, -100% = no light]"
9,COc1ccc(-c2cn3c(n2)sc2cc(C(=O)Nc4cc(OC)cc(OC)c4)ccc23)cc1,inactive: -17.4%
10,CCc1ccc(-n2c(=O)c3cccnc3n2CC(=O)Nc2ccccc2C(F)(F)F)cc1,inactive: -16.5%
11,N#Cc1c(NC(=O)CS(=O)(=O)c2ccc(Cl)cc2)sc2c1CCCCC2,inactive: -9.32%
12,COc1ccc(-c2ccc(CCC(=O)O)n2CC(=O)Nc2cccc(C(F)(F)F)c2)cc1,inactive: -30.4%
13,O=C(Nc1cccc(Cl)c1)c1cc(S(=O)(=O)N2CCC3(CC2)OCCO3)ccc1F,inactive: -35.3%
14,CCN(CCCNC(=O)Cn1ncc2c3ccccc3n(C)c2c1=O)c1cccc(C)c1,inactive: -10%
15,Cc1ccccc1C(=O)n1nc(-c2cccnc2)nc1NCc1ccc(F)cc1,inactive: -19.1%
16,COc1cc(OC)c(NC(=O)Cn2cnc3c(nc4n3CCCCC4)c2=O)cc1Cl,inactive: 1.37%
17,Cc1cc(OCC(=O)Nc2nc3c(s2)CCCC3)cc(C)c1Cl,inactive: -1.32%
18,CCOC(=O)c1ccccc1NC(=O)COc1cc(=O)n(CC)c2ccccc12,inactive: -12.6%
19,Cc1cccc(C)c1NC(=O)Cn1c(=O)cc(C)c2c(C)nn(-c3cccc(Cl)c3C)c21,inactive: 5.42%
20,COc1ccc(Cl)cc1NC(=O)c1sc2nc3c(cc2c1N)CN(C)CC3,inactive: 16.8%
21,CCOc1ccccc1NC(=O)Cn1c(=O)n(Cc2ccccc2)c(=O)c2c3c(sc21)CN(C(C)=O)CC3,inactive: -26.9%
22,O=C(CCC1N=C2c3ccccc3N=C(SCc3ccc(Cl)cc3)N2C1=O)NC1CCCCC1 (configuration not stated),inactive: -22.9%
23,O=C(CN1CCN(C2CCCCC2)C(=O)C1=O)Nc1ccc(Cl)cc1,inactive: -11.5%

row,SMILES,"activity change, positive = activation"
1,CC1=C(c2ccc(C)cc2)S(=O)(=O)N(Cc2ccc(C(=O)NCc3ccccc3F)cc2)C1=O,inactive: -21.8%
2,O=C1CCCc2[nH]c(=O)c(-c3nc(-c4cccc([N+](=O)[O-])c4)cs3)cc21,inactive: -19%
3,CC(=O)c1ccc(NC(=O)Cn2c(=O)oc3cc(S(=O)(=O)N4CCCCC4)ccc32)cc1,inactive: -8.92%
4,COc1ccc(-c2nc(CNC(=O)NC3CCCCC3)c(C)o2)c(OC)c1,inactive: -10.2%
5,Cc1ccc2c(c1)C(C)(c1ccccc1)CC(C)(C)N2C(=O)c1ccc(F)cc1 (configuration not stated),inactive: -45.5%
6,CCOC(=O)c1cc2c(=O)n3ccccc3nc2n(Cc2ccco2)c1=NC(=O)c1ccc(F)cc1,inactive: -7.95%
7,O=C(CCCn1c(=O)[nH]c2ccccc2c1=O)N1CCN(c2ccccc2)CC1,inactive: -7.66%
8,O=C(CN1C(=O)COc2ccc(S(=O)(=O)N3CCOCC3)cc21)N1CCN(c2ccc(Cl)cc2)CC1,inactive: -12.9%
9,O=S(=O)(NCCc1cn2ccsc2n1)c1ccc(Cl)cc1,inactive: -18.3%
10,CCCCCCc1cc2cc(-c3cn4c(n3)sc3cc(OC)ccc34)c(=O)oc2cc1O,inactive: -1.6%
11,CCN1CCN(CCCNC(=O)c2cnn(-c3ccc(OC)cc3)c2C2CCN(C(=O)OC(C)(C)C)CC2)CC1,inactive: 4.32%
12,COc1ccc(Cl)cc1C(=O)NCCc1ccc(S(=O)(=O)NC(=O)NC2CCCCC2)cc1,inactive: -23%
13,COC(=O)c1ccc(C(=O)OC)c(NC(=O)c2cnn3c(C(F)F)cc(-c4ccc(C)cc4)nc23)c1,inactive: -8.58%
14,CC1=Nc2cc(C(=O)NC3CCCC3)ccc2Sc2ccc(Cl)cc21,inactive: -42.7%
15,CCOC(=O)c1ccc(Nc2nc3ccccc3n3c(C)nnc23)cc1,inactive: 4.39%
16,CCOCCc1nn2c(=O)cc(COC(=O)c3ccccc3NC(=O)CC(C)C)nc2s1,inactive: -11.3%
17,COc1ccc(N(C)S(=O)(=O)c2ccc3c(c2)n(C)c(=O)c(=O)n3C)cc1,inactive: -0.223%
18,CC(C)CN(CC(C)C)S(=O)(=O)c1ccc(C(=O)Nc2sc3c(c2C(N)=O)CCN(C(C)C)C3)cc1,inactive: -22.1%
19,CCOc1ccc(-c2noc(CSc3nnc(Cc4ccccc4)n3-c3ccc(F)cc3)n2)cc1,inactive: -36.1%
20,O=C(Cn1c(-c2cccs2)cc2cc(F)ccc21)N1CCCCC1,inactive: -11.4%
21,Cc1cccc(N2CCN(c3ncnc4c3cnn4-c3ccc(Cl)cc3)CC2C)c1 (configuration not stated),inactive: -7.58%
22,COC(=O)c1scc(-c2ccc(C)cc2)c1S(=O)(=O)N1CCN(c2ccccc2F)CC1,inactive: -34.1%
23,COc1cccc(C(=O)Nc2c3c(nn2-c2ccc(C)cc2C)CS(=O)(=O)C3)c1OC,inactive: 3.58%
